# According to paper PMC6919601, “Identification of Plasmodium dipeptidyl aminopeptidase allosteric inhibitors by high throughput screening” (PLoS ONE, 2019):
# Hit rate of the full screen: of about 110,000 compounds, about 230 (0.21%) showed an effect of 50% or more. The list shows a part of the results.
# Target: DPAP1 (Plasmodium falciparum, UniProt Q8IIJ9)
# Experiment: primary screen, percent inhibition; read by cleavage of a fluorogenic dipeptide substrate; higher = more effect of the substance
# Parameters: species or system P. falciparum D10 trophozoite lysates; single well
# 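Further: 30 min substrate incubation versus DMSO and 10 µM JCP410 controls.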
# DPAP1, sequence (Q8IIJ9 whole entry, looked up): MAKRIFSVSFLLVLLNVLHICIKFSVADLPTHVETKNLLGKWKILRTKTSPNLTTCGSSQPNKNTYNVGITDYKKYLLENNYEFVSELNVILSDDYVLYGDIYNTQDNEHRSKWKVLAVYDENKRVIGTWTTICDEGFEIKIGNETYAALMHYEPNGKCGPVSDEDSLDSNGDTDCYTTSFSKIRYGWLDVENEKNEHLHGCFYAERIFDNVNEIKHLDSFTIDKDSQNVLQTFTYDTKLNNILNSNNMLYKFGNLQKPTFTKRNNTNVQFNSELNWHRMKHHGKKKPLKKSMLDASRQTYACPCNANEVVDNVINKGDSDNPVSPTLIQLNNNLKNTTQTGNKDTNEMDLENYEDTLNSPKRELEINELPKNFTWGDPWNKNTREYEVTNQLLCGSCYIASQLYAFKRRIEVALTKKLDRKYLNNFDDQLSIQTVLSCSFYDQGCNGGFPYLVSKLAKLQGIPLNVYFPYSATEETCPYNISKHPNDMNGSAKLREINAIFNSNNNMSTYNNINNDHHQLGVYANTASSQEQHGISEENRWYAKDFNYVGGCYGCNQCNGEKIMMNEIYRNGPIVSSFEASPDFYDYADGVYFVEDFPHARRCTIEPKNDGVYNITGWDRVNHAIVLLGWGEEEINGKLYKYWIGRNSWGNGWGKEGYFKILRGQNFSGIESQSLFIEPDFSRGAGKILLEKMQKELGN
row,Compound,% Inhibition @ 10 uM
1,CC(C)CC(NC(=O)c1ccc(N)nc1)C(=O)NCC#N (stereo not drawn),-3.97%
2,CC(C)(C)c1ccc(C(=O)Nc2ccccc2C(N)=O)cc1Br,4.49%
3,Cc1ccc(Cn2nc(C)c(NC(=O)NC34CC5CC(CC(C5)C3)C4)c2C)cc1,-5.29%
4,CN(C(=O)COc1ccc([N+](=O)[O-])cc1)C1CCCCC1,0.634%
5,C#CCOc1ccc(/C=C2/NC(=O)NC2=O)cc1,-3.06%
6,CCOC(=O)c1c(S(=O)(=O)NCc2ccc(F)cc2)c(C)n(C)c1C,4.03%
7,CCOC(=O)N1CCC(/N=c2/c(N3CCN(Cc4ccccc4)CC3)c(O)c2=O)CC1,-1.44%
8,COc1cc(/C=C2/SC(=O)N(CC(=O)N3CCOCC3)C2=O)ccc1OCc1ccncc1,2.65%
9,O=C1NC(=O)/C(=C\c2cccc([N+](=O)[O-])c2)S1,-5.26%
10,CSc1ccc(CCNC(=O)CC(C)n2nc(C)cc2C)cc1 (stereo not drawn),1.46%
11,O=c1c(=O)n(Cc2ccccc2F)ccn1Cc1ccccc1,0.658%
12,CC(=O)Nc1ccc(C(=O)Nc2cccc(C(F)(F)F)c2)cc1,-1.98%
13,Cc1ccc(-c2nc(-n3nc(C)cc3C)c3ccccc3n2)cc1,3.18%
14,COc1ccc(Nc2cc(C)nc3ccccc23)cc1,3.04%
15,O=S(=O)(c1ccc2[nH]c3c(c2c1)CCCC3)N1CCCCC1,2.47%
16,COC(=O)c1ccc(NC(=O)CCCC(=O)O)cc1,-6.29%
17,O=C(O)CNC(=O)/C(=C/c1ccccc1)NC(=O)c1cccc(Br)c1,0.458%
18,COc1ccc(CCNC(=O)c2c(N)no[n+]2[O-])cc1OC,-2.28%
19,Cc1ccccc1NC(=O)c1ccccc1Br,0.62%
20,COc1ccc2[nH]c3c(=O)n(CCCCCC(=O)NCc4cccnc4)c(=S)[nH]c3c2c1,-0.431%
21,OCC1CCCN1Cc1ccccc1F (stereo not drawn),1.08%
22,O=C(CCc1ccccc1)NCc1ccccn1,-15.4%

row,Compound,% Inhibition @ 10 uM
1,O=C(Nc1ccc(S(=O)(=O)N2CCCCCC2)cc1)c1ccc(F)cc1,4.12%
2,CCOc1ccc(/N=C2/S/C(=C\c3ccc(O)c(OC)c3)C(=O)N2CC)cc1,5.28%
3,CC1=C(c2ccccc2)SC2=NCCN21,4.18%
4,COc1ccc(CCNC(=O)c2ccccc2OC)cc1OC,0.147%
5,CC1=C(C(=O)OCCOc2ccccc2)C(c2ccc(O)cc2)C2=C(O)CC(C)(C)CC2=N1 (stereo not drawn),21.6%
6,CC1(C)CNC(=O)c2sc(N3CCOCC3)nc2C1,5.2%
7,CCOc1cc(C#N)c(NC(=O)c2ccc(OC)c(OC)c2)cc1OCC,1.89%
8,CCN(CC)S(=O)(=O)c1ccc(NC(=O)Cc2cccc3ccccc23)cc1,-2.76%
9,CN(CCCNC(=O)Cn1c(=O)c2cccn2c2cccnc21)Cc1ccccc1,-2.97%
10,Nc1ccc2oc(-c3cc(Cl)ccc3Cl)nc2c1,6.09%
11,NC(=O)CCC1COc2ccccc2O1 (stereo not drawn),-7.24%
12,CC(NC(=O)CN1CCN(C)CC1)C1CC2CCC1C2 (stereo not drawn),0.392%
13,COc1cc(Br)cc(CN2CC(C)OC(C)C2)c1O (stereo not drawn),-3.42%
14,O=C(Nc1ccccc1F)c1cccc(F)c1,0.467%
15,COc1ccc(C2CC(c3ccc(C)cc3)=NN2C(=O)CCCC(=O)O)cc1OC (stereo not drawn),-13%
16,O=C(NCCc1ccc(Cl)cc1)C(=O)NCc1ccc2c(c1)OCO2,1.64%
17,Cc1ccccc1-c1n[nH]c(SCc2cc(=O)n3nc(C4CC4)sc3n2)n1,-6.45%
18,CC(C)CN(CCNC(=O)C1CCCN(S(=O)(=O)N2CCOCC2)C1)CC(C)C (stereo not drawn),4.83%
19,FC(F)(F)c1cccc(CN2CCN(c3ccccn3)CC2)c1,-0.294%
20,O=C(O)COc1ccc(C=C2C(=O)c3ccccc3C2=O)cc1Cl,-3.41%
21,O=C1CSC(=O)N1Cc1ccc2ccccc2c1,1.62%
22,O=C1c2ccccc2C(=O)N1c1ccccc1C(F)(F)F,-1.98%

row,Compound,% Inhibition @ 10 uM
1,CCOc1ccccc1N1CCN(C(=O)COc2ccc(Cl)cc2C)CC1,-3.39%
2,O=C(c1cc2cc3ccc(Cl)cc3nc2o1)N1CCN(Cc2ccc3c(c2)OCO3)CC1,-9.18%
3,CCc1ccccc1-n1nnc(-c2nc(-c3ccc(Cl)cc3)no2)c1N,2.19%
4,CN1CCC(N(C)Cc2ccc(F)cc2F)CC1,-4.5%
5,COc1cc2c(cc1OC)C(=O)Cc1ccccc1S2,-12.4%
6,CC1CCC(NC(=O)c2cc(C3CC3)[nH]n2)CC1 (stereo not drawn),0.181%
7,CC(C)(C)NC(=O)[C@@H]1CCCN1C(=O)OC(C)(C)C,3.05%
8,COc1ccc(CNC(=O)c2cc(=O)c3ccccc3o2)cc1,5.06%
9,Cc1cc(/C=C2\NC(=O)NC2=O)c(C)n1-c1ccccc1F,-11.6%
10,O=C(Nc1ncc(Br)cc1Br)c1cccc2ccccc12,-4.21%
11,O=C1CCCN1CCCNc1nc(-c2cccc(Cl)c2)c2c(n1)-c1ccccc1OC2,3.92%
12,COc1cccc(C(=O)N2CCC(C(=O)Nc3cc(C)cc(C)c3)CC2)c1,-3.26%
13,COc1ccc(N2CCN(C(=O)COc3ccc(S(=O)(=O)NC(C)C)cc3)CC2)cc1,1.62%
14,OC1CCCN(Cc2cccc(Br)c2)C1 (stereo not drawn),2.33%
15,CCOC(=O)C1=CN(C)C=C(C(=O)OCC)C1c1ccc(OC)c(OCc2ccccc2)c1,3.26%
16,CCOc1ccc(-n2c(SCc3nc(-c4ccc(C)cc4)no3)nnc2-c2ccncc2)cc1,4.47%
17,COc1ccc2c(=O)c(C(=O)O)c(-c3ccc4c(c3)OCO4)n(C)c2c1,0.245%
18,COc1cc(CN(C)CCN(C)C)ccc1OCc1ccccc1,-3.42%
19,O=C(Nc1cccc(Cl)c1)N1CCN(c2ccccc2)CC1,-1.36%
20,CCc1nnc(NC(=O)CCc2nc(C3=CCN(C)CC3)no2)s1,-6.59%
21,COc1ccc(-c2nc(C#N)c(NCCCN3CCOCC3)o2)cc1,-3.23%
22,Cc1ccc(C(=O)NCc2cccc(CNC(=O)c3ccc(C)cc3)c2)cc1,-3.18%
